Experimental data reported in PubChem BioAssay AID1508642 (National Center for Advancing Translational Sciences (NCATS), 2021).
The campaign covered roughly 43,000 compounds. About 200 (0.47%) were called active. Another 12% or so got no clear call; they are omitted. Calls follow the shape of the dose curve; as a rule, active = well fitted cell-killing curve with a large enough effect; inconclusive = small, poorly fitted or top-dose-only effect, or effect the other way; inactive = flat fitted curve, though single readings scatter. Some of the results follow.

Experiment: Cell viability qHTS assay in S16 Pmp22-F2sN cells; also: nearly all actives have a fitted effect of over 65% in size
Details: S16 Pmp22-F2sN Schwann cells viability, CellTiter-Glo, 24 h; series mostly up to 57.5 µM; activity change, negative = cytotoxicity: at the top concentration
Outline: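 Used to flag compounds lowering reporter output through toxicity, this quantitative HTS measures ATP-based CellTiter-Glo luminescence in S16 Pmp22-F2sN Schwann cells after 24 h compound exposure at 37C.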
% is scaled to controls: 0 for no effect and ±100 for the full control effect.

Row | Structure (SMILES) | activity change, negative = cytotoxicity
1 | COc1cc(Cl)c(C)cc1NC(=O)c1ccc(CN2C(=O)CCn3nc(C)cc32)cc1 | inactive: -27.4%
2 | Cc1c(Cl)cccc1NC(=O)CSc1ncc(S(=O)(=O)c2ccc(C(C)C)cc2)c(=O)[nH]1 | inactive: 9.69%
3 | Cc1ccc(-c2nnc(Nc3ccc(Cl)c(Cl)c3)c3ccccc23)cc1S(=O)(=O)N(C)C | inactive: 13.1%
4 | COc1ccc(CCNS(=O)(=O)c2ccc(F)c(C(=O)Nc3ccc(Cl)cc3)c2)cc1OC | inactive: -28.6%
5 | Cc1ccc(C(=O)N2CCN(c3ccc(F)cc3)CC2)cc1NC(=O)c1nsc2ccccc12 | inactive: 3.87%
6 | Oc1c(C(c2ccccc2Cl)N2CCOCC2)sc2nc(-c3ccco3)nn12 (stereo not given) | inactive: 9.95%
7 | CCC(=O)N1CCc2cc(CNC(=O)Nc3cc(C)ccc3C)ccc21 | inactive: 1.68%
8 | CCNC(=O)c1c(NC(=O)Cc2coc3cc(C)ccc23)sc2c1CCCC2 | inactive: 5.34%
9 | CCn1c(C(=O)NCc2ccc(OC)cc2)cc2sc(Cl)cc21 | inactive: 18.7%
10 | CCn1cc(C(=O)N2CCN(c3ccccc3)CC2)c(=O)c2cc(S(=O)(=O)N3CCCC3)ccc21 | inactive: -4.02%
11 | COc1cccc(C(=O)Nc2nc3nc(C)c(C)c(=O)n3[nH]2)c1 | inactive: 5.89%
12 | CCOc1ccc(S(=O)(=O)Nc2cccc(C)c2)c2cccnc12 | inactive: 3.61%
13 | CCc1ccccc1NC(=O)Cc1cn(C)c2ccccc12 | inactive: -4.08%
14 | Cc1ccc(Nc2ncnc3onc(C)c23)cc1Cl | inactive: -9.29%
15 | COc1ccc(-c2nn(CC(=O)NCc3ccccc3)c3c2cnc2ccc(F)cc23)cc1 | inactive: 28.6%
16 | CCOc1ccccc1NC(=O)CN1C(=O)COc2ccc(S(=O)(=O)Nc3ccccc3)cc21 | inactive: 18.7%
17 | Cc1ccc(NC(=O)C2CCCN(S(=O)(=O)c3ccc4[nH]c(=O)ccc4c3)C2)cc1C (stereo not given) | inactive: 0.303%
18 | CCCCN(C)CCCNC(=O)CN1C(=O)CSc2ccc(S(=O)(=O)N3CCOCC3)cc21 | inactive: 3.43%
19 | O=C(NCc1cccs1)c1nn(-c2ccccc2F)nc1CO | inactive: 3.1%
20 | CCCCNC(=O)Cn1ncc2c(C)n(Cc3cccc(Cl)c3)c(C)c2c1=O | inactive: 2.19%
21 | O=C(Cn1c(=O)nc(-c2ccccc2F)c2cc(Cl)ccc21)Nc1ccccc1C(F)(F)F | inactive: 0.383%
22 | CCCC(CCC)C(=O)Nc1nnc2n1CCS2 | inactive: -0.06%
23 | Cc1cccc(N(C)C(=O)c2cc(S(=O)(=O)N3CCCCC3)c[nH]2)c1 | inactive: -5.3%
24 | COc1ccc(NC(=O)c2cc(S(=O)(=O)N3CCCCC3)cn2C)cc1Cl | inactive: 5.12%

Row | Structure (SMILES) | activity change, negative = cytotoxicity
25 | CCc1ccc(CNC(=O)c2nn(-c3ccc(OC)c(Cl)c3)c(=O)c3c2c2ccccc2n3C)cc1 | inactive: 7.71%
26 | COc1ccc(-c2c3c(nc4sc(C(=O)Nc5ccccc5F)c(N)c24)CC(C)(C)CC3=O)cc1 | inactive: 16.2%
27 | CCN(Cc1ccccc1)C(=O)CN1C(=O)CSc2ccc(S(=O)(=O)N(CC)CC)cc21 | inactive: -2.68%
28 | COC(=O)CSc1nc2sc3c(c2c(=O)n1Cc1ccccc1)CCC(C(C)(C)C)C3 (stereo not given) | inactive: -0.141%
29 | COc1ccccc1CCNC(=O)C(=O)NCC(c1cccs1)S(=O)(=O)c1ccc(F)cc1 (stereo not given) | inactive: 17.6%
30 | C=CCc1ccccc1OCCn1c(C2CC(=O)N(Cc3ccc(F)cc3)C2)nc2ccccc21 (stereo not given) | inactive: 10.5%
31 | Cc1ccc(C)c(NC(=O)N2CCc3cc(S(=O)(=O)N4CCC(C)CC4)ccc32)c1 | inactive: 0.804%
32 | Cc1ccc2nc(-c3cccc(Cl)c3)c(Nc3ccc4c(c3)OCO4)n2c1 | inactive: 0.844%
33 | COc1ccccc1NC(=O)Cn1cc(C(=O)c2ccncc2)c(=O)c2cc(C)ccc21 | inactive: -4.57%
34 | COc1ccc(Cl)cc1NC(=O)C1CCN(S(=O)(=O)c2ccc3c(c2)CCCN3C(=O)C2CCC2)CC1 | inactive: 18.1%
35 | Cc1cc(=O)[nH]c2nnc(SCC(=O)Nc3ccc(F)cc3F)n12 | inactive: 0.321%
36 | Cc1ccc(NC(=O)N2CCN3CCCCC3C2)cc1F (stereo not given) | inactive: -2.2%
37 | Cc1ccsc1CN(C(=O)c1ccc(Br)cc1)C1CCS(=O)(=O)C1 (stereo not given) | inactive: -3.38%
38 | O=C(Nc1cccc(-c2nc3ccccc3[nH]2)c1)c1ccccc1F | inactive: -13.6%
39 | CCc1ccc(-c2nc(SCC(=O)NCC3CCCO3)c(-c3ccc(F)cc3)[nH]2)cc1 (stereo not given) | inactive: 2.71%
40 | CNC(=O)c1ccc(CSc2nc3cccnc3n2Cc2cccc(F)c2)cc1 | inactive: -13.1%
41 | COc1ccc(CCNc2nc(SCc3ccc(F)cc3)nc3ccccc23)cc1OC | inactive: -7.16%
42 | CC1=C(c2ccc(C)c(C)c2)S(=O)(=O)N=C1N1CCC(C(=O)Nc2ccc(Cl)cc2)CC1 | inactive: 8.43%
43 | CCc1nn(CC(=O)N2CCN(c3cc(C)ccc3C)CC2)c(=O)c2cc3occc3n12 | inactive: 2.94%
44 | Fc1ccccc1N1CCN(c2ncc3c(n2)CCN(Cc2ccc(Br)s2)C3)CC1 | inactive: 3.3%
45 | COc1cc(NS(=O)(=O)c2cc3c(cc2C)n(C)c(=O)c(=O)n3C)cc(OC)c1 | inactive: 4.28%
46 | O=C(Nc1nnc(S(=O)(=O)N2CCOCC2)s1)c1cccc(Br)c1 | inactive: -3.39%
47 | COc1cccc(C(=O)Nc2ccc(C(=O)OCc3cc(=O)n4cc(C)sc4n3)cc2)c1 | inactive: -28.2%
48 | Cc1ccccc1C(=O)NC1(C(F)(F)F)C(=O)Nc2c1c(=O)[nH]c(=O)n2CCc1ccccc1 (stereo not given) | inactive: -2.15%

Row | Structure (SMILES) | activity change, negative = cytotoxicity
49 | COc1ccc(-c2nc3c4ccccc4n(CC(=O)Nc4ccc(C(C)=O)cc4)c(=O)n3n2)cc1 | inactive: 1.61%
50 | Cc1nc2ccc(S(=O)(=O)NCC(=O)Nc3ccc(C)c(Cl)c3)cc2s1 | inactive: 5.91%
51 | Cc1cc(C)cc(NC(=O)CSc2nc3c(cnn3-c3ccc(F)cc3)c(=O)[nH]2)c1 | inactive: 11%
52 | COc1cc(NC(=O)NCCn2nnc3cc(S(=O)(=O)N(C)C)ccc32)cc(OC)c1OC | inactive: 10%
53 | COc1cc(NC(=O)c2cc3cc4ccc(OC)c(Cl)c4nc3s2)cc(OC)c1 | inactive: 11.4%
54 | Cc1ccc(-c2cc3ncc4c(n3n2)-c2ccccc2OC4)cc1 | inactive: -4.78%
55 | Cc1ccc(OCCSc2nc3ccccc3n2CC(=O)NC(C)C)cc1 | inactive: 16.6%
56 | O=C1CSC2(C(=O)N(Cc3c(F)cccc3Cl)c3ccccc32)N1c1ccc(F)c(F)c1 (stereo not given) | inactive: -1.8%
57 | Cc1ccc(-c2nnn3c2nc(N2CCC(C)CC2)c2ccccc23)cc1 | inactive: 7.53%
58 | Cc1cc(SCC(=O)Nc2ccc(C(F)(F)F)cc2)nc(=O)[nH]1 | inactive: -16.9%
59 | Cc1ccc(C)c(N2CCN(C(=O)c3cccn4c(=O)c5ccccc5nc34)CC2)c1 | inactive: 4.35%
60 | CCCCOC(=O)c1ccc(NC(=O)c2cc(=O)c3ccccc3o2)cc1 | inactive: 0.326%
61 | O=C(O)CCCn1cc(NC(=O)COc2ccccc2F)cn1 | inactive: -1.81%
62 | CCc1ccc(C(=O)c2cn(CC(=O)Nc3ccc(OC)cc3)c3cc4c(cc3c2=O)OCCO4)cc1 | inactive: 24.5%
63 | O=C(Nc1ccc(OC(F)(F)F)cc1)C(NS(=O)(=O)c1cccc2nsnc12)c1ccccc1 (stereo not given) | inactive: -10.1%
64 | COc1ccc(CCNC(=O)c2ccc(CSCc3ccc(C)cc3)o2)cc1OC | inactive: -5.79%
65 | Cc1cccc(CSc2ccc3nnc(CCNS(=O)(=O)c4ccccc4)n3n2)c1 | inactive: -22.1%
66 | Fc1ccc(Nc2c(-c3c[nH]c4ccccc34)nc3ccccn23)cc1 | inactive: 1.89%
67 | Cc1ccc(C(=O)Nc2nnc(S(=O)(=O)N3CCCc4ccccc43)s2)cc1 | inactive: 4.68%
68 | CCc1ccc2c(c1)c(=O)c(C(=O)c1ccccc1)cn2CC(=O)Nc1ccc(C)c(Cl)c1 | inactive: 1.64%
69 | Cc1oc2ncn(CC(C)C)c(=O)c2c1C(=O)NCCCN1CCCCC1C (stereo not given) | inactive: 20.3%
70 | CCN1CCN(C(=O)c2ccc3c(c2)N(Cc2ccc(Cl)cc2)C(=O)c2ccccc2S3=O)CC1 (stereo not given) | inactive: 19.5%
71 | CCOc1ccc(NC(=O)c2oc3ccccc3c2NC(=O)Cc2cccs2)cc1 | inactive: 6.44%
72 | CCc1ccc(Cn2c(CNS(=O)(=O)c3ccc4c(c3)CCCC4)nc3cccnc32)cc1 | inactive: -5.08%

Row | Structure (SMILES) | activity change, negative = cytotoxicity
73 | Cc1ccc(NC(=O)CSc2nc3nccnc3c(=O)n2CCc2c[nH]c3ccccc23)c(C)c1 | inactive: 2.46%
74 | COc1ccc(-c2nnc(SCC(=O)NCCc3ccccc3)nc2-c2ccc(OC)cc2)cc1 | inactive: 2.61%
75 | CCc1ccccc1NC(=O)c1ncoc1-c1ccco1 | inactive: 1.31%
76 | Cc1ccccc1CN1c2ccccc2-c2nc(SCC(=O)Nc3cc(F)ccc3F)ncc2S1(=O)=O | inactive: 10.5%
77 | Cc1ccc(-n2ncc(C(=O)NCCCN3CCN(C)CC3)c2C2CCN(C(=O)OC(C)(C)C)CC2)cc1 | inactive: -0.228%
78 | Cc1cc(C)c(NC(=O)CN2C(=O)CCn3nc(-c4cccn4C)cc32)c(C)c1 | inactive: 0.286%
79 | Cc1ccc(Cl)cc1NC(=O)c1cc(-c2ccc3c(c2)OCCO3)on1 | inactive: -0.151%
80 | Cc1cccc(NC(=O)CN(C)S(=O)(=O)c2cnc[nH]2)c1C | inactive: 0.943%
81 | Cc1cc(C)c(NC(=O)CSc2cn(CC(=O)N3CCOCC3)c3ccccc23)c(C)c1 | inactive: 10.7%
82 | CCCCNc1cc(N2CCN(C3CCCCC3)CC2)c2noc3c2c1C(=O)c1ccccc1-3 | inactive: 5.1%
83 | CCCCC(=O)N1CCN(c2nc3c(C)c(C)ccc3s2)CC1 | inactive: 2.71%
84 | COc1cccc(-n2c(SCC(=O)Nc3ccc(F)cc3F)nc3c([nH]c4ccccc43)c2=O)c1 | inactive: 2.68%
85 | c1csc(-c2nc3ccccn3c2Nc2ccc3c(c2)OCCO3)c1 | inactive: -0.918%
86 | COc1ccc(S(=O)(=O)NCCS(=O)(=O)N2CCN(c3ccccc3F)CC2)cc1 | inactive: -19%
87 | COc1ccc(CCNC(=O)c2ccc(Cn3c(=O)c4ccccc4n(Cc4ccccc4Cl)c3=O)cc2)cc1OC | inactive: 11.4%
88 | CCOc1cc(-c2ccc(OC(=O)c3ccc(Cl)cc3)c(OC)c2)cc(=O)c2c(C)oc(C)c12 | inactive: 1.38%
89 | Cc1nnc(N2C(=O)c3oc4ccccc4c(=O)c3C2c2ccc(F)cc2)s1 (stereo not given) | inactive: 15.9%
90 | Cc1c(C(=O)NCc2ccc(F)cc2)sc2nc(-c3ccccc3)cn12 | inactive: -2.17%
91 | Oc1c(C(c2ccc(Cl)cc2)N2CCCC2)sc2nc(-c3ccco3)nn12 (stereo not given) | inactive: 5.06%
92 | CCOc1ccccc1C(=O)NCC(c1ccc(N(C)C)cc1)N1CCc2ccccc21 (stereo not given) | inactive: 10.6%
93 | COc1ccccc1CNC(=O)c1cccc(NC(=O)N2CCSc3ncccc32)c1 | inactive: -0.469%
94 | COc1cc(-c2nc3cccc(C)n3c2Nc2ccc3c(c2)OCCO3)ccc1O | inactive: -0.17%
95 | CCCCOC(=O)c1ccc(NC(=O)CSc2nc3c(c(=O)[nH]2)CCC3)cc1 | inactive: -5.8%
